Experimental data taken from the supplement of paper PMC4967469.

Key:
Experiment in all cases: Viability of human cancer cell lines after 72 h of drug (GDSC screen)
Bexarotene = compound: C=C(c1ccc(C(=O)O)cc1)c1cc2c(cc1C)C(C)(C)CCC2(C)C [Bexarotene]; conditions: top dose 8 µM
Experimental: (§1)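 Human cancer cell lines in 384-well plates, medium with 10% serum, drug for 72 h over a 256-fold dose range (nine 2-fold or five 4-fold steps up to the top dose). Adherent lines were fixed and stained with the nucleic acid dye Syto60, suspension lines read with resazurin; signal relative to control wells, capped at 0 and 100%. One two-parameter sigmoid per drug and line, fitted in a mixed model over all curves with the slope shared within a line.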

NPK76-II-72-1 = compound: COc1cc(C(=O)NC2CCN(C)CC2)ccc1Nc1ncc2c(n1)N(C1CCCC1)C(C)CC(=O)N2C [NPK76-II-72-1]; conditions: top dose 10.24 µM; top dose inferred
Experimental: as §1

Etoposide = compound: COc1cc([C@@H]2c3cc4c(cc3[C@@H](O[C@@H]3O[C@@H]5CO[C@@H](C)O[C@H]5[C@H](O)[C@H]3O)[C@H]3COC(=O)[C@H]23)OCO4)cc(OC)c1O [Etoposide]; conditions: top dose 16 µM
Experimental: as §1

YK 4-279 = compound: COc1ccc(C(=O)CC2(O)C(=O)Nc3c(Cl)ccc(Cl)c32)cc1 [YK 4-279]; conditions: top dose 10 µM
Experimental: as §1

BMS-345541 = compound: Cc1ccc2nc(NCCN)c3ncc(C)n3c2c1 [BMS-345541]; conditions: top dose 16 µM
Experimental: as §1

AZD7762 = compound: NC(=O)Nc1cc(-c2cccc(F)c2)sc1C(=O)N[C@H]1CCCNC1 [AZD7762]; conditions: top dose 2 µM
Experimental: as §1

GSK-650394 = compound: O=C(O)c1ccc(-c2c[nH]c3ncc(-c4ccccc4)cc23)cc1C1CCCC1 [GSK-650394]; conditions: top dose 16 µM; top dose inferred
Experimental: as §1

XAV 939 = compound: Oc1nc(-c2ccc(C(F)(F)F)cc2)nc2c1CSCC2 [XAV 939]; conditions: top dose 5 µM; top dose inferred
Experimental: as §1

Cell Line UMC-11 (lung carcinoid, adherent) has an AUC (Bexarotene) of 0.949, an IC50 (Bexarotene) of over 8 µM and an AUC (NPK76-II-72-1) of 0.849. For the same cell line, the IC50 (NPK76-II-72-1) was 6.48 µM, the AUC (Etoposide) was 0.896 and the IC50 (Etoposide) was over 16 µM. For the same cell line, the AUC (YK 4-279) was 0.781, the IC50 (YK 4-279) was 3.68 µM and the AUC (BMS-345541) was 0.908. It also gave an IC50 (BMS-345541) of over 16 µM, an AUC (AZD7762) of 0.858 and an IC50 (AZD7762) of 1.37 µM. It also gave an AUC (GSK-650394) of 0.863, an IC50 (GSK-650394) of 11.5 µM and an AUC (XAV 939) of 0.977. It also gave an IC50 (XAV 939) of over 5 µM.

Cell Line VA-ES-BJ (soft tissue, adherent) has an AUC (Bexarotene) of 0.935, an IC50 (Bexarotene) of over 8 µM and an AUC (NPK76-II-72-1) of 0.97. It also gave an IC50 (NPK76-II-72-1) of over 10.2 µM, an AUC (Etoposide) of 0.373 and an IC50 (Etoposide) of 0.438 µM. The AUC (YK 4-279) was 0.656, the IC50 (YK 4-279) was 1.74 µM and the AUC (BMS-345541) was 0.984. It also gave an IC50 (BMS-345541) of over 16 µM, an AUC (AZD7762) of 0.618 and an IC50 (AZD7762) of 0.269 µM. The AUC (GSK-650394) was 0.792, the IC50 (GSK-650394) was 7.67 µM and the AUC (XAV 939) was 0.917. For the same cell line, the IC50 (XAV 939) was over 5 µM.

In the case of WM35 (melanoma, adherent), the AUC (Bexarotene) is reported as 0.941, the IC50 (Bexarotene) is reported as over 8 µM and the AUC (NPK76-II-72-1) is reported as 0.778. The IC50 (NPK76-II-72-1) was 4.18 µM, the AUC (Etoposide) was 0.717 and the IC50 (Etoposide) was 4.14 µM. For the same cell line, the AUC (YK 4-279) was 0.697, the IC50 (YK 4-279) was 2.24 µM and the AUC (BMS-345541) was 0.851. It also gave an IC50 (BMS-345541) of 12.4 µM, an AUC (AZD7762) of 0.706 and an IC50 (AZD7762) of 0.477 µM. For the same cell line, the AUC (GSK-650394) was 0.954, the IC50 (GSK-650394) was over 16 µM and the AUC (XAV 939) was 0.985. For the same cell line, the IC50 (XAV 939) was over 5 µM.

With WM278 (melanoma, adherent) the AUC (Bexarotene) was 0.97, the IC50 (Bexarotene) was over 8 µM and the AUC (NPK76-II-72-1) was 0.908. It also gave an IC50 (NPK76-II-72-1) of over 10.2 µM, an AUC (Etoposide) of 0.648 and an IC50 (Etoposide) of 2.71 µM. The AUC (YK 4-279) was 0.757, the IC50 (YK 4-279) was 3.85 µM and the AUC (BMS-345541) was 0.861. The IC50 (BMS-345541) was over 16 µM, the AUC (AZD7762) was 0.596 and the IC50 (AZD7762) was 0.237 µM. It also gave an AUC (GSK-650394) of 0.955, an IC50 (GSK-650394) of over 16 µM and an AUC (XAV 939) of 0.966. For the same cell line, the IC50 (XAV 939) was over 5 µM.

For WM793B (melanoma, adherent), the AUC (Bexarotene) was 0.968, the IC50 (Bexarotene) was over 8 µM and the AUC (NPK76-II-72-1) was 0.956. The IC50 (NPK76-II-72-1) was over 10.2 µM, the AUC (Etoposide) was 0.638 and the IC50 (Etoposide) was 2.52 µM. The AUC (YK 4-279) was 0.738, the IC50 (YK 4-279) was 3.25 µM and the AUC (BMS-345541) was 0.872. For the same cell line, the IC50 (BMS-345541) was over 16 µM, the AUC (AZD7762) was 0.671 and the IC50 (AZD7762) was 0.395 µM. For the same cell line, the AUC (GSK-650394) was 0.837, the IC50 (GSK-650394) was 12.4 µM and the AUC (XAV 939) was 0.95. For the same cell line, the IC50 (XAV 939) was over 5 µM.

With WM1552C (melanoma, adherent) the AUC (Bexarotene) was 0.959, the IC50 (Bexarotene) was over 8 µM and the AUC (NPK76-II-72-1) was 0.988. It also gave an IC50 (NPK76-II-72-1) of over 10.2 µM, an AUC (Etoposide) of 0.856 and an IC50 (Etoposide) of 13 µM. The AUC (YK 4-279) was 0.537, the IC50 (YK 4-279) was 0.789 µM and the AUC (BMS-345541) was 0.846. The IC50 (BMS-345541) was 11.7 µM, the AUC (AZD7762) was 0.838 and the IC50 (AZD7762) was 1.37 µM. For the same cell line, the AUC (GSK-650394) was 0.705, the IC50 (GSK-650394) was 3.79 µM and the AUC (XAV 939) was 0.986. The IC50 (XAV 939) was over 5 µM.

YAPC (pancreas, adherent) gave an AUC (Bexarotene) of 0.936, an IC50 (Bexarotene) of over 8 µM and an AUC (NPK76-II-72-1) of 0.984. For the same cell line, the IC50 (NPK76-II-72-1) was over 10.2 µM, the AUC (Etoposide) was 0.904 and the IC50 (Etoposide) was over 16 µM. The AUC (YK 4-279) was 0.943, the IC50 (YK 4-279) was over 10 µM and the AUC (BMS-345541) was 0.913. The IC50 (BMS-345541) was over 16 µM, the AUC (AZD7762) was 0.886 and the IC50 (AZD7762) was over 2 µM. It also gave an AUC (GSK-650394) of 0.985, an IC50 (GSK-650394) of over 16 µM and an AUC (XAV 939) of 0.911. For the same cell line, the IC50 (XAV 939) was over 5 µM.

In the case of YKG-1 (glioma, adherent), the AUC (Bexarotene) is reported as 0.956, the IC50 (Bexarotene) is reported as over 8 µM and the AUC (NPK76-II-72-1) is reported as 0.934. It also gave an IC50 (NPK76-II-72-1) of over 10.2 µM, an AUC (Etoposide) of 0.531 and an IC50 (Etoposide) of 1.22 µM. The AUC (YK 4-279) was 0.702, the IC50 (YK 4-279) was 2.34 µM and the AUC (BMS-345541) was 0.841. For the same cell line, the IC50 (BMS-345541) was 11.4 µM, the AUC (AZD7762) was 0.838 and the IC50 (AZD7762) was 1.38 µM. It also gave an AUC (GSK-650394) of 0.763, an IC50 (GSK-650394) of 5.86 µM and an AUC (XAV 939) of 0.976. It also gave an IC50 (XAV 939) of over 5 µM.

Cell Line YT (lymphoid neoplasm, suspension) has an AUC (Bexarotene) of 0.922, an IC50 (Bexarotene) of over 8 µM and an AUC (NPK76-II-72-1) of 0.904. The IC50 (NPK76-II-72-1) was 10.1 µM, the AUC (Etoposide) was 0.857 and the IC50 (Etoposide) was 10 µM. It also gave an AUC (YK 4-279) of 0.782, an IC50 (YK 4-279) of 3.53 µM and an AUC (BMS-345541) of 0.766. It also gave an IC50 (BMS-345541) of 5.05 µM, an AUC (AZD7762) of 0.5 and an IC50 (AZD7762) of 0.125 µM. The AUC (GSK-650394) was 0.854, the IC50 (GSK-650394) was 9.78 µM and the AUC (XAV 939) was 0.986. It also gave an IC50 (XAV 939) of over 5 µM.

With huH-1 (liver, adherent) the AUC (Bexarotene) was 0.978, the IC50 (Bexarotene) was over 8 µM and the AUC (NPK76-II-72-1) was 0.984. For the same cell line, the IC50 (NPK76-II-72-1) was over 10.2 µM, the AUC (Etoposide) was 0.973 and the IC50 (Etoposide) was over 16 µM. For the same cell line, the AUC (YK 4-279) was 0.649, the IC50 (YK 4-279) was 1.79 µM and the AUC (BMS-345541) was 0.981. For the same cell line, the IC50 (BMS-345541) was over 16 µM, the AUC (AZD7762) was 0.67 and the IC50 (AZD7762) was 0.42 µM. For the same cell line, the AUC (GSK-650394) was 0.958, the IC50 (GSK-650394) was over 16 µM and the AUC (XAV 939) was 0.952. For the same cell line, the IC50 (XAV 939) was over 5 µM.

For no-10 (glioma, adherent), the AUC (Bexarotene) was 0.946, the IC50 (Bexarotene) was over 8 µM and the AUC (NPK76-II-72-1) was 0.982. It also gave an IC50 (NPK76-II-72-1) of over 10.2 µM, an AUC (Etoposide) of 0.673 and an IC50 (Etoposide) of 3.4 µM. It also gave an AUC (YK 4-279) of 0.807, an IC50 (YK 4-279) of 6.57 µM and an AUC (BMS-345541) of 0.867. For the same cell line, the IC50 (BMS-345541) was over 16 µM, the AUC (AZD7762) was 0.979 and the IC50 (AZD7762) was over 2 µM. It also gave an AUC (GSK-650394) of 0.932, an IC50 (GSK-650394) of over 16 µM and an AUC (XAV 939) of 0.934. For the same cell line, the IC50 (XAV 939) was over 5 µM.

Work on no-11 (glioma, adherent) yielded an AUC (Bexarotene) of 0.916, an IC50 (Bexarotene) of over 8 µM and an AUC (NPK76-II-72-1) of 0.972. The IC50 (NPK76-II-72-1) was over 10.2 µM, the AUC (Etoposide) was 0.704 and the IC50 (Etoposide) was 4.38 µM. For the same cell line, the AUC (YK 4-279) was 0.768, the IC50 (YK 4-279) was 4.69 µM and the AUC (BMS-345541) was 0.911. For the same cell line, the IC50 (BMS-345541) was over 16 µM, the AUC (AZD7762) was 0.845 and the IC50 (AZD7762) was over 2 µM. It also gave an AUC (GSK-650394) of 0.918, an IC50 (GSK-650394) of over 16 µM and an AUC (XAV 939) of 0.976. For the same cell line, the IC50 (XAV 939) was over 5 µM.

Lines with a small IC50 respond at low doses; a limit (>, <) means that the fit lies beyond the doses tested. AUC sums up the same curve from the lowest dose to the 256-fold higher top dose; values near 1 show little effect. For part of these data: The top dose, if marked as inferred, is not printed in the source and was worked back from the curve model.
